From the supplement of paper PMC3656093
Where “and” joins values, the source holds several entries; their conditions need not be identical. Identical values can stand only once. ± gives the standard deviation of the averaged measurements. Whole data set: some 1,900 compounds, median “CD40L-induced NF-kB luciferase activity, plate-corrected, relative to DMSO (0) and IKK inhibitor VII (-100) controls” near 0.032, cut for the lowest 2% near -26. Some of the results follow.

System: BL2-NFkB-Luc
Assay: CD40L-induced NF-kB luciferase activity, plate-corrected, relative to DMSO (0) and IKK inhibitor VII (-100) controls (% normalized activity); higher = more NF-kB reporter activity (less inhibition)
Conditions: 9.4 µM; stimulus: tCD40L 64 ng/ml; 4.5 h
Experimental: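 BL2 B cells with a stable NF-kB response-element luciferase reporter (BL2-NFkB-Luc), 384-well. Cells were pre-incubated with compound at 9.4 uM for 1 h at 37 C, then stimulated with 64 ng/ml trimerized CD40L for 4.5 h; luciferase was read with Steady-Glo. Signal was normalised per plate in Genedata (median DMSO neutral control = 0, median IKK inhibitor VII at 50 uM = -100) with Assay Median plate-pattern correction; duplicate plates.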

Compound | CD40L-induced NF-kB luciferase activity
CC(C)C12CN3CC(C(C)C)(CN(C1)C3c1ccccc1O)C2=O (stereo not given) | -2.808 ± 0.011
NS(=O)(=O)c1cc2c(cc1C(F)(F)F)NCNS2(=O)=O | 1.77 ± 0.71
O=C(NC(=S)N1CCCCC1)c1cccnc1 | -3.04 ± 2.8
CC(O)Cn1cnc2c1c(=O)n(C)c(=O)n2C (stereo not given) | 0.9 ± 3.9
COc1cc(CNCCc2ccccc2F)ccc1OCC(=O)N1CCCCC1 | -0.135 ± 0.12
Cn1c(=O)[nH]c(=O)c2c1nc(Br)n2CCCO | 3.58 ± 0.86
N/C(=N\OC(=O)c1ccc(Br)o1)c1ccccn1 | 13.5 ± 3.3
COc1cccc(OC2OC3COC(C)(C)OC3C(O)C2NC(C)=O)c1 (stereo not given) | -2.18 ± 2.7
O=C(Nc1cccc(Oc2c(F)c(F)c(F)c(F)c2F)c1)N1C[C@@H]2C[C@@H](C1)c1cccc(=O)n1C2 | -0.339 ± 1.9
COC(=O)c1ccc(=O)n(Cc2ccco2)c1 | -0.352 ± 2.6
CC(C)C[C@H](NC(=O)[C@@H]1Cc2ccccc2CN1C(=O)OC(C)(C)C)C(=O)NCC1CCC(C(=O)O)CC1 (stereo not given in full) | -1.28 ± 0.76
COc1ccc(-c2noc(CCc3ccccc3)n2)cc1 | 58.9 ± 6.4
COc1cc2c(cc1NCc1ccc3c(c1)OCO3)oc1ccccc12 | 44.5 ± 8.7
C=C(C)[C@@H]1CC=C(CN2CCC(N3CCC(C(=O)N4CCCC4)CC3)CC2)CC1 | -5.18 ± 1.8
O=C(CCNNC(=O)c1ccncc1)NCc1ccccc1 | -24.8 ± 30
CCOC(=O)n1c(=O)oc2ccccc21 | -1.93 ± 0.16
CCCn1c(=O)c2[nH]c(C3CCCC3)nc2n(CCC)c1=O | -11.9 ± 7
Cc1nc2ccccn2c(=O)c1CCN1CCC(C(=O)c2ccc(F)cc2)CC1 | -14.7 ± 8.9
NC(=O)c1cnccn1 | -7.55 ± 1
O=c1cc(-c2ccc3c(c2)OCCO3)oc2ccc(Cl)cc12 | 75.9 ± 14
COc1cc(C(=O)Nc2cccc(-c3nnc(-c4ccco4)o3)c2)ccc1OC(C)=O | 15.1 ± 1.5
CCNC(=S)Nc1ccc(OC(F)(F)F)cc1 | 3.97 ± 0.15
NC(N)=NN=Cc1cccc(Cl)c1Cl | 0.0493 ± 1.3
O=C(NCc1ccc(N2CCCC2=O)cc1)c1ccc(F)cc1 | 2.23 ± 0.89
CCCCCCCC(=O)OCC(O)CO (stereo not given) | -1.11 ± 1.9

Compound | CD40L-induced NF-kB luciferase activity
CC(=O)O[C@H]1CC[C@H]2[C@@H]3CCc4cc(O)ccc4[C@H]3CC[C@]12C | -3.39 ± 3.8
OC12CCCCC1C(c1ccc3c(c1)OCO3)N(Cc1cccc(F)c1)CC2 (stereo not given) | 3.97 ± 0.1
CC12CCC(C(=O)NNc3ccccc3)(C(=O)C1=O)C2(C)C (stereo not given) | 0.924 ± 0.68
O=c1n(CCCN2CCN(c3cccc(Cl)c3)CC2)nc2ccccn12 | 4.1 ± 3.1
CC(=O)NCCCC(=O)NC(CCC(=O)OCc1ccccc1)C(=O)OCc1ccccc1 (stereo not given) | 0.267 ± 6.9
CC1(C)S[C@@H]2[C@H](NC(=O)[C@H](N)c3ccccc3)C(=O)N2[C@H]1C(=O)O | -3.02 and -6.95
C[C@@H]1C[C@H](Nc2ccccc2)c2ccccc2N1C(=O)c1cccnc1 | -8.09 ± 4.7
CCN(CC)c1ccc(C2=NNC(=O)CC2C)cc1[N+](=O)[O-] (stereo not given) | 2.41 ± 5
COc1ccc2cc([C@H](C)C(=O)O)ccc2c1 | 5.64 ± 2.2
C/C=C(/C(=C/C)c1ccc(O)cc1)c1ccc(O)cc1 | 0.512 ± 0.3
Cc1ncc([N+](=O)[O-])n1CC(C)O (stereo not given) | -14.5 ± 13
COc1ccc(-c2cc3cc(OC)c(OC)cc3c(C)n2)cc1 | 29.9 ± 5.4
O=C(Nc1ccc(Oc2c(F)c(F)c(F)c(F)c2F)cc1)OC1CCN2Cc3ccccc3N=C12 (stereo not given) | -15.2 ± 2.6
CCOc1ccc(C(=O)NCC2(c3ccccc3)CCOCC2)cc1 | 2.68 ± 0.27
CCOC(=O)C1CCCN(Cc2nc(Cc3cccc(F)c3)no2)C1 (stereo not given) | -0.168 ± 10
COc1ccc(-c2[nH]ncc2CN(CCO)Cc2cccs2)c(F)c1 | -8.47 ± 4.1
N#C/C(=C\c1ccc(O)c(O)c1)C(=O)NCCCc1ccccc1 | -21.1 ± 0.37
O=P(c1ccccc1)(c1ccccc1)c1nc(-c2ccc(Cl)cc2)oc1N1CCOCC1 | -1.72 ± 0.6
C/C(NC(=O)c1cccs1)=C1\C(=O)C[C@@H]2[C@H]1C2(C)C | 34.6 ± 1.7
CCNCCC(CCC(C)C)c1ccc2c(c1)OCO2 (stereo not given) | 0.732 ± 3.2
O=C(O)c1ccccc1O | -11.6 ± 13
CN1CCCN(C(c2ccccc2)c2ccc(Cl)cc2)CC1 (stereo not given) | 4.06 ± 4.2
Nc1ccc(N)c(C(=O)O)c1 | 3.1 ± 4.4
CC(C)NC(=O)C1(c2ccccc2)CCOCC1 | 2.39 ± 4.5
CC(C)OC(=O)C(C)(C)Oc1ccc(C(=O)c2ccc(Cl)cc2)cc1 | 2.91 ± 1.5

Compound | CD40L-induced NF-kB luciferase activity
COC(=O)C1[C@H]2C(=O)N(Cc3cccs3)C[C@]23C=C[C@H]1O3 (stereo not given in full) | -7.63 ± 0.63
COc1cc(C2C(C(C)=O)=C(O)C(=O)N2c2ccc(C)cc2)ccc1O (stereo not given) | -9.3 ± 24
O=C(Nc1ccccc1)OCC1CCCN2CCCCC12 (stereo not given) | -0.838 ± 2.4
COc1ccc2cc(-c3nc4ccccc4n3C)c(=O)oc2c1 | 59.7 ± 7.4
CC1(C)NC(C(=O)O)Cc2c1[nH]c1ccccc21 (stereo not given) | -5.47 ± 1.3
COC(=O)CCC(=O)CN | -0.0616 ± 1.1
CC(C)=CCC/C(C)=C/CCC(C)=NO | 2.33 ± 4.2
CCc1cc(=O)oc2cc(C)c(CN3CCCC(C)C3)c(O)c12 (stereo not given) | 3.18 ± 1
CC(=O)c1c(C)[nH]c(C(=O)OCc2ccccc2)c1C | 3.33 ± 3.2
CC(=NNC(=O)c1ccccc1[N+](=O)[O-])c1ccc(Br)s1 | 0.482 ± 5.1
CN(C)CCOc1ccc(Cl)cc1C(C)(C)C | 6.623 ± 0.023
CCN1C(=O)C(CC(=O)Nc2ccc(F)cc2)N(Cc2ccc3c(c2)OCO3)C1=S (stereo not given) | -5.89 ± 7.1
COc1ccccc1/C=C/C(=O)c1c2c(c(C)[nH]c1=O)CCCC2 | -23.8 ± 4.3
CC(=O)c1c(C)c(C)c2n1CCn1c(C)ccc1-2 | 2.8 ± 7.2
O=C(CCc1ccccc1)Nc1ccccc1C(F)(F)F | 10.8 ± 2.8
O=C(OCC(O)C(O)COC(=O)c1ccccc1)c1ccccc1 (stereo not given) | -7.26 ± 8.9
CC(=O)N[C@@H](CS)C(=O)O | -0.851 ± 1
O=C(CNC(=O)OCc1ccccc1)NC1CCCCCC1 | -0.331 ± 0.99
Cc1ccc(C2CC(c3cccs3)=NN2C(=O)c2ccco2)o1 (stereo not given) | -7.33 ± 3.4
COc1cc(CNc2ccc(C)c(C)c2)cc(OC)c1OC | -2.76 ± 2.9
COc1ccc(C(=O)O)cc1F | -3.87 ± 2.9
COc1cccc(OCc2cc(C3Nc4ccccc4C(=O)N3Cc3ccco3)ccc2OC)c1 (stereo not given) | 4.63 ± 1.6
Cc1nc(C2CC(=O)OC23CCCCC3)cs1 (stereo not given) | -4.38 ± 1.9
CC[C@H](C)C(=O)O[C@H]1C[C@@H](C)C=C2C=C[C@H](C)[C@H](CC[C@@H]3C[C@@H](O)CC(=O)O3)[C@H]21 | 5.85 ± 6.6
O=C(CCCCC(=O)NC1CCCC1)NC1CCCC1 | 1.99 ± 7.1
